Read counts are not given, so values of variants with three or more changes are uncertain.
B1: OR4K15 (parent)
chain: GUUAACGGUCAUAGGCCAUGGAAACUAGGAGCACCAUUUCGCUGCCAGUGAAGAAAUGAACAAAGAAAAUCUGGGCCAGGCAGGCAUCAAAAGAAAUAGUCUUGCGCUCAACCAGAAAGUCUGUAAUCAUUUUAAGGGUA

Variants of: B1
Assay: self-cleavage, relative activity (ratio to wild type); higher = more cleavage; in vitro, sequencing; the parent is a self-cleaving ribozyme

Q: For GUUAACGGCCAUAGGCCAUGGAAACUAGGAGCGCCAUUUCGCUGCCAGUGAAGAAAUGAACAAAGAAAAUCUGGGCCAGGCAGGCAUCAAAAGAAAUAGUCCUGCGCUCAACCAGAAAGUCUGUAAUCAUUUUAAGGGUA [U9C A33G U102C], which self-cleavage is on record?
A: 2.18

Q: With GUUAACGGUCAUAGGCCAUGGAAACUAGGAGCACCAUUUCGCUGCCGGUGAAGAAAUGAACAAAGAAAAUCCGGGCCAGGCAGGCAUCAAAAGAAAUAGUCUUGCGCCCAACCAGAAAGUCUGUAAUCACUUUAAGGGUA [A47G U72C U108C U130C] as the variant, how does the self-cleavage read?
A: 0.01

Q: With GUUAACGGUCAUAGGCCAUGGAAACUAGCAGCACCAUUUCGCUGCCAGUGAAGAAAUGAACAAAGAAAAUCUGGGCCAGGCGGGCAUCAAAAGAAAUAGUCUUGCGCUCAACCAGAAAGUCUGUAAUCAUUCUAAGGGUA [G29C A82G U132C] as the variant, how does the self-cleavage read?
A: 0.54

Q: For GUUAACGGUCAUAGGCCAUGGAAACUGGGAGCACCAUUUCGCUGCCAGUGAAGAAAUGAACAAAGAAAAUCUGGGCCAGGCUGGCAUCAAAAGAAAUAGUCUUGCGCUCAACCAGUAAGUCUGUAAUCAUUUUAAGGGUA [A27G A82U A116U], which self-cleavage is on record?
A: 0.09

Q: Which self-cleavage does the source give for GUUAACGGUCAUGGGCCAUGGCAACUAGGAGCACCAUUCCGCUGCCAGUGAAGAAAUGAACAAAGAAAAUCUGGGCUAGGCAGGCAUCAAAAGAAAUAGUCUUGCGCUCUACCAGAAAGUCUGUAAUCGUUUUAAGGGUA [A13G A22C U39C C77U A110U A129G] here?
A: 1.28

Q: Which self-cleavage does the source give for GUUAACGGUCAUAGGCCAUGGAAACUAGGAGCACCAUUUCGCUGCCAGUGGAGAAAUGGACAAAGAAAAUCUGGGCCAGACAGGCGUCAAAAGAAGUAGUCUUGCGCUCAACCAGAAGGUCUGUAAUCAUUUUAAGGGUA [A51G A59G G80A A86G A96G A118G] here?
A: 0.08

Q: Which self-cleavage does the source give for GUUAACGGUCAUAGGCCAUGGAAACCAGGAGCACCAUUUCGCCGCCAGUGAAGAAAUGAACAAAGAAAAUCUGGGCCAGGCAGGCAUCAAAAGUAAUAGUCUUGCGCUCAACCAGAAAGUCUGUAAUCAUUCUAAGGGUA [U26C U43C A94U U132C] here?
A: 2.07

Q: Which self-cleavage does the source give for GUUAACGGUCAUAGGCCAUGGAAACUAGGAGCACCAUUUCGCCGCCAGUGAAGAAAUGAACAAAGAAAAUCUGGGCCAGGCGGGCAUCAAAAGGAAUAGUCUUGCGCUCAACCAGAAAGUCUGUAAUCAUUUUAAGGGUA [U43C A82G A94G] here?
A: 0.58

Q: Which self-cleavage does the source give for GUUAACGGUCAUGGGCCAUGGGAACUAGGAGCACCAUUUCGCCGCCAGUGAAGAAAUGAACAAAGAAAAUCUGGGCCAGGCAGGCAUCAAAAGAAAUAGUCUUGCGCUCAACCAGAAAGUCUGUAAUCAUUUUAAGGGUA [A13G A22G U43C] here?
A: 1.34

Q: Which self-cleavage does the source give for GUUAACGGCCAUAGGCCAUGGAAACUAGGAGCACCAUUUCGCUGCCAGUGAAGAAAUGAACAAAGAAAAUCUGGGCCAGGCAGGCAUCAAAAGAAAUAGUCUCGCGCUCAACCAGAAUGUCUGUAAUCAUUUUAAGGGUA [U9C U103C A118U] here?
A: 0.47

Q: Which self-cleavage does the source give for GUUAACGGUCACAGGCCAUGGAAACUAGGAGCACCAUUUCGCUGCCAGUGGAGAAAUGAACAAAGAAAAUCCGGGCCAGGCAGGCAUCAAAAGAAAUAGUCUUGCGCUCAACCAGAAAGCCUGUAAUCAUUUUAAGGGUA [U12C A51G U72C U120C] here?
A: 0.17

Q: With GUUAACGGUCAUUGGCCAUGGAAACUAGGAGCACCACUUCGCUGCCAGCGAAGAAAUGAACAAAGCAAAUCUGGGCCAGGCAGGCAUCAAAAGAAAAAGUCUUGCGCUCAACCAGAAUGUCUGAAAUCAUUUUAAGGGUA [A13U U37C U49C A66C U97A A118U U124A] as the variant, how does the self-cleavage read?
A: 0.41

Q: Which self-cleavage does the source give for GUUAACGGUCGUAGGCCAUGGAAACUAGGAGCACCAUCUCGCUGCCAGUGUAGAAAUGAACGAAGAAAAUCUAGGCCAGGCAGGCACCAAAAGAAAUAGUCUUGCGCUCAACCAGAAAGUCUGUAAUCAUUUUAAGGGUA [A11G U38C A51U A62G G73A U87C] here?
A: 0.19

Q: Which self-cleavage does the source give for GUUAACGGUCAUAGGCCAUGGAAACCAGGAGCACCAUUUCGCUGCCAGUGAAGAAAUGAACAAAGAAAAUCUGGGCCAGGCAGGCAUCAAAAGAAAUAGUCCUGCGCUCAACCAGAAAGUCUGUAAUCAUUUUAAUGGUA [U26C U102C G136U] here?
A: 1.78

Q: With GUUAACGGUCAUAGGCCAUGGAAACUAGGAGCACCAUUUCGCUGCCAGUGAAGAAAUGAACAAAGAAAAUCUGGGCCAGGCAGGCAUCAAAAGAGACUGUCUAGCGCUCAACCAGAAAGUCUGUAAUCAUCUUAGGGGUA [A95G U97C A98U U103A U131C A135G] as the variant, how does the self-cleavage read?
A: 0.03

Q: With GUUAACGGUCAUAGGCCAUGGGAGCUAGGAGCACCAUUUCGCUGCCAGUGAAGAAAUGAACAAAGAAAAUCUGGGCCAGGCAGGCAUCAAAAGAGAUAGUCUCGCGCUCAACCUGAAAGUCUGUAAUCAUUUUAAGGGUA [A22G A24G A95G U103C A114U] as the variant, how does the self-cleavage read?
A: 0

Q: With GUUAACGGUCAUAGGCCAUGGAAACUAGGAGCACCAUCUCGCUGCCAGUGAAGAAAUGAACAAAGAAAAUCUGGGCCAGGCAGGCUUCAAAAGAAAUAGUCUUGCGCGCAACCAGAAAGUCUGUAGUCAUUUUAAGGGUA [U38C A86U U108G A126G] as the variant, how does the self-cleavage read?
A: 0.01

Q: Which self-cleavage does the source give for GAUAACGGUCAUAGGCCACGGAAACUAGGAGCACCAUUUCGCUGCCAGUGAAGAAAUGAACAAAGAAAAACUGGGCCAGGCAGGCAUCAAAAGAAAUAGUCUUGCGCUCAACCAGAAAGUCUGUAAUCUUUUUAAGGGUA [U2A U19C U70A A129U] here?
A: 0.69

Q: Which self-cleavage does the source give for GUUAACGGUCAUAGGCCAUGGAAACUAGGAGCACCAUUUCGCUGCCAGUGAGGAAGUGAACGAAGAAAAUCUGGGCCAGGCAGGCAUCAAAAGAAAUAGUCUUGCGCUCAACCAGAAAGUCUGUAAUCAUUUUAAGGGUA [A52G A56G A62G] here?
A: 0.66

Q: For GUUAACGGUCAUAGGCCAUGGAGACUAGGAGCGCCAUUUCGCUGCCAGUGAAGAAAUGAACAAAGAAAAUCUGGGCCAGGCAGGCUUCAAAAGAAAUAGUCUUGCGCUCAACCAGAAAGUCUGUAAUCAUUUUAAGGGUA [A23G A33G A86U], which self-cleavage is on record?
A: 1.14

Q: Which self-cleavage does the source give for GUUAACGGUCAUAGGCCAUGGAAACUAGGAGCACCAUUUCACCGCCAGUGAAGAAAUGAACAAAGAAGAUCUGGGCCAGGCAGGCAUCAAAAGAAAUAGUCUUGCGCUCAACCAGAAAGUCUGUAAUCAUUUUAAGGGUA [G41A U43C A68G] here?
A: 0.94

From the RNAGym collection of RNA variant scans (doi:10.7554/elife.90254)
